Laboratory results taken from PubChem BioAssay AID488969 (Vanderbilt High Throughput Screening Facility, 2010).
The full ranking holds about 110,000 compounds; the median of “z-score” is about -0.1, and the highest 2% start at about 2. This is one part of the list. The source made the active and inactive calls.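 How the source made its calls: active means z-score in the third read window above 3 or below -3; inactive means the rest.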

The compounds below were run against Metabotropic glutamate receptor 8 (Rattus norvegicus) (UniProt P70579) (assay: rat mGluR8 modulators via GIRK flux, primary screen, cell-based, thallium flux, HTS (AID 488969)). Details: HEK293 rat mGluR8, GIRK (G protein-gated inwardly rectifying potassium channel) thallium flux, FluoZin2; at 10 µM; stronger effect = higher value; submaximal glutamate (EC20) added with thallium.
Sequence of UniProt P70579 (P70579 whole entry, looked up): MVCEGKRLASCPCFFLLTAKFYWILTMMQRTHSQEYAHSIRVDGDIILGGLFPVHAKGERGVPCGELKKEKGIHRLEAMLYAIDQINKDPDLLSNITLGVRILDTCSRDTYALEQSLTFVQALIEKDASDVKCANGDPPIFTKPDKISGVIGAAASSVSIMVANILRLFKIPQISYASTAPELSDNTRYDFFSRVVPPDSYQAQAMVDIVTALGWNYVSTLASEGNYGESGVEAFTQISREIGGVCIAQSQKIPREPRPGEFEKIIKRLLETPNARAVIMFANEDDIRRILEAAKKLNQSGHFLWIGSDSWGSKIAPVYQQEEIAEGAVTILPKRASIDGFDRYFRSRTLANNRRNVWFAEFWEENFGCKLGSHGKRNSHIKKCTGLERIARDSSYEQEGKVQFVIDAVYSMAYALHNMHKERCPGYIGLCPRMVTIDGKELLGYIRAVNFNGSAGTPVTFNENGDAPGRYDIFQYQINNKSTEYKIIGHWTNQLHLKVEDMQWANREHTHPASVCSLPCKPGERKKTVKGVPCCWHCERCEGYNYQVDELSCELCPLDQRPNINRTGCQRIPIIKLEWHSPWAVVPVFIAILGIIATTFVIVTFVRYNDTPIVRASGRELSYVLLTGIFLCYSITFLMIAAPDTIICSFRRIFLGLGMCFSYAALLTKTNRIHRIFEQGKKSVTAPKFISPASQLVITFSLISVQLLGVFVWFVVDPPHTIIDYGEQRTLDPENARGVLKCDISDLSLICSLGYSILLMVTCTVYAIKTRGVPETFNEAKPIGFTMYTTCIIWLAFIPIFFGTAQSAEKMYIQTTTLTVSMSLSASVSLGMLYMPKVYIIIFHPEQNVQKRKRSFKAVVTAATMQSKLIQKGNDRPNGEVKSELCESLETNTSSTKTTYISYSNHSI

First: O=C(NNc1nc(-c2ccccc2)cs1)c1ccccc1
Second: COc1cc(/C=N/N=C(/C(=O)c2ccccc2)c2ccccc2)cc(OC)c1O
The z-score of the first is lower: -1.53 for the first, -0.457 for the second.

Compared with `CCCCOC(=O)Nc1nnc(-c2ccccc2OC)s1`, `COc1ccccc1CCNC(=O)c1ccoc1C` is higher in z-score: -0.938 for the first, 0.238 for the second.

Compared with `O=C(CN1CCCC1)Nc1ccc(Oc2ccc(NC(=O)CN3CCCC3)cc2)cc1`, `COc1ccccc1NS(=O)(=O)c1cc(NC(=O)Nc2ccccc2)ccc1N1CCCCC1` is lower in z-score: 2.7 for the first, -0.071 for the second.

Going from `CC1Cn2c(nnc2C23CC4CC(CC(C4)C2)C3)S1` (stereo not given) to `O=S(NCc1ccccc1)C12CC3CC(CC(C3)C1)C2` (stereo not given), the z-score rises from -0.17 to 0.0757.

Going from `COC(=O)Nc1ccc(S(=O)(=O)N2CCC(C)CC2)cc1` to `COc1ccc(S(=O)(=O)N2CCN(C(=O)NCc3ccccc3)CC2)cc1`, the z-score rises from -0.128 to -0.0685.

Going from `O=C1CN(C(=O)c2ccco2)C(c2ccccc2)c2cc(Cl)ccc2N1` (stereo not given) to `O=C(c1ccco1)N1CCN(c2ncnc3c(-c4ccccc4)nsc23)CC1`, the z-score rises from -0.465 to -0.259.

Going from `CC1=CC(C)(C)n2c(O)c(N=NC(N)=S)c3cc(C)cc1c32` to `CCn1cc(CNC(=O)c2cc(-c3cc(OC)ccc3OC)nc3ccccc23)c(C)n1`, the z-score falls from 1.04 to -0.258.

First: O=C1CCN(S(=O)(=O)c2ccc(Cl)cc2)N1
Second: O=C(CS(=O)(=O)c1cn(Cc2ccc(Cl)cc2)c2ccccc12)N1CCCCC1
The z-score of the first is higher: 1.08 for the first, -0.155 for the second.

First: O=C(NNS(=O)(=O)c1ccc([N+](=O)[O-])cc1)c1cnn(-c2ccccc2)c1-n1cccc1
Second: O=C(CN(c1ccccn1)S(=O)(=O)c1ccccc1)N/N=C/c1cccc([N+](=O)[O-])c1
The z-score of the first is higher: 0.239 for the first, -0.26 for the second.

Going from `C#CC(C)(C)NC(=O)CSc1nc2c(c(=O)n(C)c(=O)n2C)n1CCCC` to `Cc1cc(C(=O)CSCCCn2c(=O)[nH]c3ccccc32)c(C)n1C`, the z-score rises from -0.341 to 0.0855.

Going from `CCCN1C2CCCC1CC(NC(=O)Nc1cccc(C(C)=O)c1)C2` (stereo not given) to `S=C(Nc1ccc(Cl)cc1)NC1CC2CCCC(C1)N2C1CCCC1` (stereo not given), the z-score falls from 0.188 to 0.0783.

First: O=C(Nc1cccnc1)C1CC(c2ccccc2O)=NO1 (stereo not given)
Second: CCn1c(SCC(=O)NCc2ccccc2)nnc1-c1ccccc1O
The z-score of the first is lower: -0.19 for the first, 0.0869 for the second.

First: OCCSc1nc(-c2ccccc2)nc2c1CCC2
Second: COc1ccc(C(=O)c2nc3c(n2O)CCCCC3)cc1
The z-score of the first is lower: -0.107 for the first, -0.0919 for the second.

Going from `C=C(C)CNC(=S)N/N=C(\C)c1ccc(-n2ccnc2)cc1` to `CC(=O)Nc1ccc(S(=O)(=O)NCc2ccc3c(c2)cc(C)n3C)cc1`, the z-score rises from -0.342 to 0.208.

Going from `Cc1ccc(CNC(=O)C2CCCN(S(=O)(=O)c3c(C)n[nH]c3C)C2)cc1` (stereo not given) to `Cc1cc(NC(=O)c2cccc(S(=O)(=O)N3CCCC3)c2)no1`, the z-score falls from 0.211 to 0.0735.

Compared with `Cc1cc(C)c(-c2csc(NC(=O)C3=NN(c4ccccc4)C(=O)CC3)n2)c(C)c1`, `CC1=NN(c2ccccc2)C(=O)/C1=C/c1ccc[nH]1` is higher in z-score: -0.758 for the first, -0.279 for the second.

First: Cc1cccc(N=C2Sc3nc4c(C)c(C)ccc4cc3CN2CCN2CCOCC2)c1
Second: COc1ccc(CCN2C(=O)CC(Nc3ccc(N4CCOCC4)cc3)C2=O)cc1OC (stereo not given)
The z-score of the first is higher: 0.611 for the first, -0.168 for the second.

Compared with `CCc1ccccc1NC(=O)/C(C#N)=C\c1ccc(Sc2ccccc2)o1`, `COc1ccc(NC(=O)c2ccco2)cc1NC(=O)c1cccs1` is lower in z-score: -0.252 for the first, -0.36 for the second.

First: CCn1c(SCC(=O)c2ccc(CNC(C)=O)o2)nnc1-c1cccs1
Second: CCCCn1nc2cc(C(=O)NCCc3cccs3)ccc2c1OCC
The z-score of the first is lower: -0.715 for the first, -0.71 for the second.

First: CCCCN1C(=O)/C(=C/C=C2\N(C)c3ccccc3C2(C)C)SC1=S
Second: O=C1c2ccccc2C(=O)N1CCCSc1nc2ccccc2o1
The z-score of the first is higher: 0.217 for the first, 0.00917 for the second.

First: CC(=O)Nc1ccc(N/C=C/C(=O)C(C)(C)C)cc1
Second: CCOC(=O)c1[nH]c(C)c(C(=O)Nc2ccc(F)cc2)c1C
The z-score of the first is higher: 0.017 for the first, -0.184 for the second.

First: CC(C)CNC(=O)NC1C(NC(=O)NCC(C)C)N(C)C(=O)N1C (stereo not given)
Second: CC(C)N(C(=O)COC(=O)c1cc(Cl)cc(Cl)c1N)C(C)C
The z-score of the first is higher: 0.0762 for the first, -0.0515 for the second.

Going from `O=C(Nc1sc2c(c1C(=O)NC1CC1)CCCCCC2)c1ccco1` to `O=C(NCCCNC(=O)c1ccco1)c1ccco1`, the z-score falls from -0.371 to -1.09.

Going from `CCCNC(=O)Cc1c(O)c2ccccc2[nH]c1=O` to `CCCOc1ccc(CNC(=O)Cn2c(=O)oc3ccccc32)cc1`, the z-score falls from 0.0931 to -0.588.

First: O=C(C/C=N/OCc1ccc(Cl)cc1Cl)c1ccccc1
Second: Nc1cc(Cl)ccc1C(=O)OCC(=O)NC(=O)NCc1ccccc1
The z-score of the first is higher: -0.222 for the first, -0.236 for the second.

Compared with `COc1ccc([C@H]2[C@H](C(=O)OC(C)(C)C)N3N=Cc4ccccc4C3C23C(=O)c2ccccc2C3=O)c(OC)c1` (stereo not given in full), `COc1ccc(NS(=O)(=O)c2ccc(SC)cc2)c(OC)c1` is higher in z-score: -0.179 for the first, 0.216 for the second.

First: CNC(=O)c1ccc(-c2ccc(F)cc2)s1
Second: Cc1ccc(Oc2ccc(Cl)cc2NC(=O)c2ccc(F)cc2F)cc1
The z-score of the first is lower: -0.24 for the first, -0.0415 for the second.

First: C=CCSc1ncnc2sc(C)c(C)c12
Second: CCn1c(SCC(=O)O)nc2sc3c(c2c1=O)CCC3
The z-score of the first is higher: 0.751 for the first, -1.62 for the second.

Going from `O=C(CSc1ncccn1)NN=C1CCCCCCC1` to `O=C(Cn1nc(C(F)F)cc1C1CC1)NCCC1=CCCCC1`, the z-score falls from 0.0617 to 0.00364.

Going from `COc1cc(-c2nc3cnccn3c2Nc2ccc(C(C)C)cc2)ccc1O` to `Cc1cc(C)nc(-n2nc(C)c(Br)c2Nc2ccc(Br)cc2)n1`, the z-score rises from -0.148 to 0.303.

Compared with `CSc1ccc(NC(=O)NCCN2CCc3ccccc3C2)cc1`, `O=C(CSc1nnc(CN2CCOCC2)n1-c1ccccc1)Nc1ccc(Cl)cc1` is lower in z-score: -0.413 for the first, -0.936 for the second.

Compared with `CNC(=O)N(C1=NCC(C)S1)c1ccc(F)cc1F` (stereo not given), `CC(C)NC(=O)c1onc(CSc2cccc(F)c2)c1C(=O)O` is higher in z-score: -0.867 for the first, -0.127 for the second.

Compared with `COc1ccc(OCc2nnc3n2N=C(c2ccc(OC)cc2)CS3)cc1`, `CCOc1ccc(NS(=O)(=O)c2cc(Cl)ccc2OC)cc1` is higher in z-score: -0.252 for the first, -0.0904 for the second.

Going from `N#CNC(N)=Nc1cccc(Cl)c1` to `CCOc1ccc(C(=O)NCC(=O)OCc2ccc(F)cc2Cl)cc1`, the z-score rises from -0.122 to -0.0774.

First: CC(/C=N\NC(=O)CN1CCN(Cc2ccccc2)CC1)=C\c1ccco1
Second: CC1CCCN(C(=O)C(Cc2ccccc2)n2cccc2)C1 (stereo not given)
The z-score of the first is higher: -0.153 for the first, -0.166 for the second.

First: Cn1cccc1C(=O)N1CCN(c2cccc(C(F)(F)F)c2)CC1
Second: COc1ccc(N(CC(=O)N2CCN(c3ccccc3)CC2)S(=O)(=O)c2c(C)noc2C)cc1
The z-score of the first is lower: -0.386 for the first, -0.151 for the second.

Going from `CCCNS(=O)(=O)c1ccc(OC)c(Cl)c1Cl` to `COc1cc(C)nc(OCCNS(=O)(=O)c2cc(C)ccc2C)n1`, the z-score rises from -0.104 to 0.217.

Going from `Clc1ccccc1CN(Cc1ccccc1)c1ncnc2nc[nH]c12` to `O=C(N/N=C/c1c[nH]c2ccccc12)c1cc(-c2ccc3ccccc3c2)n[nH]1`, the z-score falls from 0.535 to 0.114.

Going from `Cc1ccc2nc(Cc3ccc(N)cc3)[nH]c2c1` to `Cc1cccc(Cn2c(N(C)CCO)nc3c2c(=O)[nH]c(=O)n3C)c1`, the z-score falls from -0.202 to -0.225.

Going from `COc1cc(Br)cc(/C=N/NC(=O)Cc2ccc(C(F)(F)F)cc2[N+](=O)[O-])c1O` to `O=c1cc(CO)oc(C(Nc2ccccn2)c2cccc(F)c2)c1O` (stereo not given), the z-score falls from -0.211 to -0.241.

Compared with `Cc1ccc(S(=O)(=O)C(C#N)c2nc3ccccc3nc2N2CC(C)OC(C)C2)cc1C` (stereo not given), `Cn1c(=O)oc2cc(S(=O)(=O)NC(Cc3ccccc3)C(=O)N3CCCCC3)ccc21` (stereo not given) is lower in z-score: -0.185 for the first, -0.355 for the second.

First: CCOc1cc(/C=C2\SC(=O)N=C2N)ccc1O
Second: C=CCn1c(COc2cccc(C)c2)nnc1SCn1nnc2ccccc2c1=O
The z-score of the first is higher: -0.108 for the first, -0.197 for the second.

Going from `CC1CC(C)CN(C(=O)c2cn(C)c3ccc(S(=O)(=O)N(C)C)cc3c2=O)C1` (stereo not given) to `CCOC(=O)N1CCC(N2C(=O)c3ccccc3C2Nc2c(C)cccc2C)CC1` (stereo not given), the z-score falls from -0.0944 to -0.177.

Compared with `O=C1CC(O)(C(F)F)Oc2ccc3ccccc3c21` (stereo not given), `CN(CC(=O)Nc1ccc(F)cc1)C(=O)COc1ccc(C(=O)c2ccccc2)cc1` is higher in z-score: 0.416 for the first, 0.555 for the second.

First: O=C(O)CSc1ccccc1C(=O)O
Second: CCC(C)(C)NC(=O)C(c1ccccc1)N(C(=O)c1csnn1)C1CC1 (stereo not given)
The z-score of the first is lower: -0.242 for the first, 0.663 for the second.

Going from `C=CCN(c1ccc(C(N)=O)cc1)S(C)(=O)=O` to `CCN(CC)S(=O)(=O)c1ccc(C(=O)NCc2n[nH]c(=S)n2-c2ccccc2OC)cc1`, the z-score rises from -0.156 to -0.0139.

Compared with `CN=c1scc(-c2cccs2)n1/N=C/c1ccccc1O`, `O=C(/C=C/c1ccccc1Cl)Nc1ccncc1` is lower in z-score: 0.0374 for the first, -0.162 for the second.

First: CNC(=S)N(Cc1ccco1)Cc1cc2cc3c(cc2[nH]c1=O)OCCO3
Second: O=C(/C=C/c1cccc([N+](=O)[O-])c1)NCc1ccco1
The z-score of the first is higher: 0.0341 for the first, -0.205 for the second.

First: CC1CCC(C(C)C)C2=C1C(C#N)(C#N)C(C#N)(C#N)C(c1ccccc1)N2 (stereo not given)
Second: CCc1[nH]nc2c1C1(CCN(C(=O)OCc3ccccc3)CC1)C(C#N)=C(N)O2
The z-score of the first is higher: -0.206 for the first, -0.249 for the second.

Going from `Cc1ccc(C2(CCNS(=O)(=O)c3ccc(C)cc3)CCOC(C(C)C)C2)cc1` (stereo not given) to `COc1ccc(S(=O)(=O)N2CCC(CN3C(=O)c4cccc5cccc(c45)C3=O)CC2)cc1`, the z-score falls from -0.0103 to -0.138.

Going from `CCCNC(=S)N1CCN(CC)CC1` to `CCn1c(SCC(=O)N2CCC(C(N)=O)(N3CCCCC3)CC2)nc2ccccc2c1=O`, the z-score falls from 0.0876 to -1.2.

First: CC(NC(=O)C1CCCCC1)C(=O)NC1=NCCS1 (stereo not given)
Second: COC(=O)Cn1c2[n+](c3ccccc31)CC(O)CS2 (stereo not given)
The z-score of the first is higher: 0.00509 for the first, -0.0277 for the second.

First: CC(C)(C)c1nnc(NC(=O)CN2C(=O)C3C4C=CC(C4)C3C2=O)s1 (stereo not given)
Second: Cc1ccc(N=C2SC(C(=O)Nc3ccc(OC(F)(F)F)cc3)C(N)=C2C(=O)Nc2c(C)cc(C)cc2C)cc1 (stereo not given)
The z-score of the first is lower: -0.271 for the first, 0.572 for the second.

Work on `Cc1cc2c(cc1C)CSC(c1ccc(O)cc1)SC2` yielded a z-score of -0.639.

`O=C(COc1ccccc1)NNC(=S)NC(=O)c1ccc(Cl)cc1Cl` was tested, and the z-score was active: 5.19.
In the case of `CSC1=NSC2=NC(=O)/C(=C/c3coc4ccccc4c3=O)C(=N)N12`, the z-score is reported as active: 10.4.
With `C=C(C)C1CC=C(C)/C(=N/NC(=O)COc2ccccc2Cl)C1` (stereo not given) the z-score was active: 12.4.
